# Test results reported in publication PMC4336329 (PLoS ONE, 2015).
# The campaign covered roughly 310,000 compounds. About 2,200 (0.71%) showed an effect of 50% or more. Effects have a minus sign here. This is one part of the list.
# Biological target: human ether-à-go-go-related gene (hERG) potassium channel (human, UniProt Q12809)
# Experiment: primary screen, population patch clamp on CHO cells stably expressing hERG
# Chain of human ether-à-go-go-related gene (hERG) potassium channel (Q12809 whole entry, looked up): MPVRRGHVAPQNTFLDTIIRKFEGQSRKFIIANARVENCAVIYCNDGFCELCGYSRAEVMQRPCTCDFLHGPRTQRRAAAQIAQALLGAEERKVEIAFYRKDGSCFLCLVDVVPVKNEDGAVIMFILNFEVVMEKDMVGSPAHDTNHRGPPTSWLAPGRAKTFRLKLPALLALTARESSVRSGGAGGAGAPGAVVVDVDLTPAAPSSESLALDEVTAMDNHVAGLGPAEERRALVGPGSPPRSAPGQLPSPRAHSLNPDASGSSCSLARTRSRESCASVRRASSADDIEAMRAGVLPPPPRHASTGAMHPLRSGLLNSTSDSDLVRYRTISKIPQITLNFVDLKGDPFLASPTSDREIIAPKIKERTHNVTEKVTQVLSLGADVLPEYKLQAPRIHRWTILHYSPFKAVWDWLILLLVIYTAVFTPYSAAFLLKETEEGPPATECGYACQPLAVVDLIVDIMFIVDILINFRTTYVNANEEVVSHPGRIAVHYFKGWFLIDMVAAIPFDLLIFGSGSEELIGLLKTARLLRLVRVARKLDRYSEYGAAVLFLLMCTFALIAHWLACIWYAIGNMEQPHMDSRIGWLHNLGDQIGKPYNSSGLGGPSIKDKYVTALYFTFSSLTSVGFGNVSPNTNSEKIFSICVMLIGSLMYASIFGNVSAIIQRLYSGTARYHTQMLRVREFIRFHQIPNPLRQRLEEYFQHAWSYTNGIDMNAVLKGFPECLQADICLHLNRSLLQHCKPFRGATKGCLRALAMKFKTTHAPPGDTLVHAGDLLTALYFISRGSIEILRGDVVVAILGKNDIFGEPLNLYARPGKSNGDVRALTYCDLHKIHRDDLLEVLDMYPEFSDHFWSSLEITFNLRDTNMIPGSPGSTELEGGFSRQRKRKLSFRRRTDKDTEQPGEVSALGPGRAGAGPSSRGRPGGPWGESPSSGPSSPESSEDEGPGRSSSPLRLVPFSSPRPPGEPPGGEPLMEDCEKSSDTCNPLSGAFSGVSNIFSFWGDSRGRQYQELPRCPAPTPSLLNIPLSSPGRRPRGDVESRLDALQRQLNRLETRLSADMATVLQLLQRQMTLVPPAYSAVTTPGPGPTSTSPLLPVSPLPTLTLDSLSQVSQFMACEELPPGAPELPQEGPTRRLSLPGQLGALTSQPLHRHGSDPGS
row,Compound,"hERG current change (%, negative = inhibition) at 1uM [%]"
1,COc1ccc(N2CCN(C(=S)Nc3ccc(S(N)(=O)=O)cc3)CC2)cc1,10.5
2,O=c1nc(N2CCOCC2)ccn1-c1nc(-c2ccccc2)oc1-c1ccccc1,5.6
3,O=C(c1ccco1)N1CCN(c2ccc([N+](=O)[O-])cc2F)CC1,-15.7
4,CCCc1c(CC)c(=N)c2ccccc2n1C.I,-2.76
5,CC(O)CNc1nc2c(c(=O)n(Cc3ccccc3)c(=O)n2C)n1C (stereo not shown),13.5
6,CCSc1nnc(NC(=O)c2ccc(S(=O)(=O)N(C)C)cc2)s1,13.5
7,CCOc1ccccc1NC(=O)c1ccccc1NC(=O)c1ccco1,13.4
8,Cc1ccc(NC(=O)CSc2nccn2C)cc1F,6.26
9,Cc1ccc(Sc2ccc(NC(=O)CCN3C(=O)NC4(CCCC4)C3=O)cc2)c(C)c1,10.8
10,Cc1c(Cl)cccc1NC(=O)CSc1ncnc2c1cnn2CCO,12.5
11,Cl.O=C(NCCCCNC(=O)c1cccnc1)c1cccnc1,-3.76
12,Cc1ccc(-c2nc3ccccc3o2)cc1NC(=S)NC(=O)c1cccs1,11.2
13,O=C(N1CCOCC1)n1nnc2ccccc21,14.4
14,CC(C)N(Cc1nccn1C)C(=O)CC1C(=O)NCCN1Cc1ccc(F)c(F)c1 (stereo not shown),12.3
15,O=C(NC(Cc1ccccc1)C(=O)O)/C(=C\c1ccc([N+](=O)[O-])cc1)NC(=O)c1ccco1 (stereo not shown),8.54
16,O=C(CN1CCCCC1)N1CCc2ccccc21,5.5
17,CCCC[C@@H]1C[C@H]1[C@@H](NC(=O)c1ccco1)c1ccccc1C(F)(F)F,10.3
18,CC(=O)N1c2ccc(S(=O)(=O)N3CCOCC3)cc2CC1C (stereo not shown),10.3
19,COc1ccc(CNC(=O)C2CCCN(S(=O)(=O)c3ccc4c(c3)CCCN4C(C)=O)C2)cc1 (stereo not shown),7.19
20,O=C(Cc1ccccc1)NCCc1ccc(Cl)cc1Cl,-9.38
21,CCC1Oc2ccccc2N(CC(=O)Nc2ccc3c(c2)OCCO3)C1=O (stereo not shown),9.15
22,COc1ccccc1S(=O)(=O)Cc1ccc(C(=O)NCC(OC)OC)o1,11.3
23,O=C(O)c1ccccc1-c1ccccc1C(=O)Nc1ccccc1,10.8
24,Cc1nc(NS(=O)(=O)c2ccccc2)sc1C(=O)NNS(=O)(=O)c1ccccc1,13
25,COc1ccc(CC(=O)Nc2ccc3c(C(F)(F)F)cc(=O)oc3c2)cc1OC,1.32
